# Measurements from the supplement of paper PMC12067230.
# Single values of this set are uncertain.
# B1: library; a variant is named by its letters at X, in order (parent)
# chain: EASNCFAIRHFENKFAVETLICXXXXXXXXX
# Variants of: B1
# Test: amyloid nucleation score relative to library mode (yeast Sup35 reporter selection) (log enrichment difference); higher = more amyloid nucleation; sequences are the first 22 residues of the Bri2 peptide extended by up to 12 random residues
# Conditions: random library (experiment): 3;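 active = nucleation score significantly above 0 at FDR 0.05; inactive = not significantly above 0 or absent from output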
# 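Note: [psi-pin-] Saccharomyces cerevisiae expressing SupN fusions, induced by 100 µM Cu2SO4, selected 7 d at 30 °C without adenine and uracil, scored by deep sequencing of output versus input.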
row,Variant,amyloid nucleation score
1,EASNCFAIRHFENKFAVETLICYVYSAFGNG [YVYSAFGNG],4.98
2,EASNCFAIRHFENKFAVETLICYVMGHARLL [YVMGHARLL],inactive
3,EASNCFAIRHFENKFAVETLICWEHTPRSVP [WEHTPRSVP],1.59
4,EASNCFAIRHFENKFAVETLICIVIGWSTRV [IVIGWSTRV],inactive
5,EASNCFAIRHFENKFAVETLICAIGIRWKVG [AIGIRWKVG],inactive
6,EASNCFAIRHFENKFAVETLICLDAIGLSAS [LDAIGLSAS],inactive
7,EASNCFAIRHFENKFAVETLICVYYGSDITR [VYYGSDITR],4.46
8,EASNCFAIRHFENKFAVETLICCRVSLCCEV [CRVSLCCEV],-0.274
9,EASNCFAIRHFENKFAVETLICTCDMAVNAG [TCDMAVNAG],inactive
10,EASNCFAIRHFENKFAVETLICHYQYAPCVS [HYQYAPCVS],inactive
11,EASNCFAIRHFENKFAVETLICTGNLSRLVP [TGNLSRLVP],0
12,EASNCFAIRHFENKFAVETLICLCCRTEMYA [LCCRTEMYA],7.06
13,EASNCFAIRHFENKFAVETLICLTRGPETSE [LTRGPETSE],inactive
14,EASNCFAIRHFENKFAVETLICKNHSRPSRR [KNHSRPSRR],inactive
15,EASNCFAIRHFENKFAVETLICMLVECHCFM [MLVECHCFM],7.93
16,EASNCFAIRHFENKFAVETLICRMRCVECGG [RMRCVECGG],inactive
17,EASNCFAIRHFENKFAVETLICTSGCQREGK [TSGCQREGK],-0.203
18,EASNCFAIRHFENKFAVETLICHSKVQSYEV [HSKVQSYEV],inactive
19,EASNCFAIRHFENKFAVETLICFYRRGDSSG [FYRRGDSSG],inactive
20,EASNCFAIRHFENKFAVETLICQMIFVVYPV [QMIFVVYPV],3.2
21,EASNCFAIRHFENKFAVETLICCRMFWYWFG [CRMFWYWFG],inactive

row,Variant,amyloid nucleation score
1,EASNCFAIRHFENKFAVETLICPVVLVLCIE [PVVLVLCIE],inactive
2,EASNCFAIRHFENKFAVETLICGLRYLCGPW [GLRYLCGPW],inactive
3,EASNCFAIRHFENKFAVETLICVLKSLNVHL [VLKSLNVHL],3.29
4,EASNCFAIRHFENKFAVETLICCLVIGEPAL [CLVIGEPAL],7.97
5,EASNCFAIRHFENKFAVETLICVPWWDGLVR [VPWWDGLVR],inactive
6,EASNCFAIRHFENKFAVETLICTGKRSRNEH [TGKRSRNEH],inactive
7,EASNCFAIRHFENKFAVETLICTDVDLRHLW [TDVDLRHLW],2.75
8,EASNCFAIRHFENKFAVETLICLDSGTLEGR [LDSGTLEGR],inactive
9,EASNCFAIRHFENKFAVETLICMCRSQFNGR [MCRSQFNGR],4.64
10,EASNCFAIRHFENKFAVETLICRVLLEARRS [RVLLEARRS],inactive
11,EASNCFAIRHFENKFAVETLICYASDLMRYI [YASDLMRYI],-0.359
12,EASNCFAIRHFENKFAVETLICFVSHVLRLF [FVSHVLRLF],inactive
13,EASNCFAIRHFENKFAVETLICRERGGRAVQ [RERGGRAVQ],inactive
14,EASNCFAIRHFENKFAVETLICRILPARRLS [RILPARRLS],inactive
15,EASNCFAIRHFENKFAVETLICPFGTLIEPH [PFGTLIEPH],2.4
16,EASNCFAIRHFENKFAVETLICLTLCVRGWS [LTLCVRGWS],inactive
17,EASNCFAIRHFENKFAVETLICYEYAPKGAA [YEYAPKGAA],inactive
18,EASNCFAIRHFENKFAVETLICVSPVRRGLQ [VSPVRRGLQ],inactive
19,EASNCFAIRHFENKFAVETLICIRCRHDGSR [IRCRHDGSR],2
20,EASNCFAIRHFENKFAVETLICKWLLVHPQH [KWLLVHPQH],inactive
21,EASNCFAIRHFENKFAVETLICAPSMVHTVI [APSMVHTVI],inactive

row,Variant,amyloid nucleation score
1,EASNCFAIRHFENKFAVETLICQFVKRPAIS [QFVKRPAIS],inactive
2,EASNCFAIRHFENKFAVETLICFMVKLQSTF [FMVKLQSTF],inactive
3,EASNCFAIRHFENKFAVETLICKHTQVSSAN [KHTQVSSAN],inactive
4,EASNCFAIRHFENKFAVETLICAPLPEGNMR [APLPEGNMR],inactive
5,EASNCFAIRHFENKFAVETLICWYNEWVKAG [WYNEWVKAG],inactive
6,EASNCFAIRHFENKFAVETLICAVGLYPACW [AVGLYPACW],6.59
7,EASNCFAIRHFENKFAVETLICMSAHVPRKM [MSAHVPRKM],2.11
8,EASNCFAIRHFENKFAVETLICVNTWVCLSC [VNTWVCLSC],5.17
9,EASNCFAIRHFENKFAVETLICRIKVKLTGS [RIKVKLTGS],inactive
10,EASNCFAIRHFENKFAVETLICLEGRSPLYI [LEGRSPLYI],0.227
11,EASNCFAIRHFENKFAVETLICDLLFVCCVP [DLLFVCCVP],5.7
12,EASNCFAIRHFENKFAVETLICQYMAAMRLV [QYMAAMRLV],inactive
13,EASNCFAIRHFENKFAVETLICVVVSRNPSY [VVVSRNPSY],inactive
14,EASNCFAIRHFENKFAVETLICGLWLRGCGG [GLWLRGCGG],inactive
15,EASNCFAIRHFENKFAVETLICDLVRDYRER [DLVRDYRER],inactive
16,EASNCFAIRHFENKFAVETLICCSTLWLVMA [CSTLWLVMA],4.05
17,EASNCFAIRHFENKFAVETLICHNCRIRGHG [HNCRIRGHG],-0.15
18,EASNCFAIRHFENKFAVETLICRRIRNGILV [RRIRNGILV],inactive
19,EASNCFAIRHFENKFAVETLICWDKPRMGFV [WDKPRMGFV],inactive
20,EASNCFAIRHFENKFAVETLICVEPGYQCRR [VEPGYQCRR],inactive
21,EASNCFAIRHFENKFAVETLICVLRNELTCP [VLRNELTCP],inactive

row,Variant,amyloid nucleation score
1,EASNCFAIRHFENKFAVETLICVDRFQAHML [VDRFQAHML],0.758
2,EASNCFAIRHFENKFAVETLICLFTRRGRAT [LFTRRGRAT],2.81
3,EASNCFAIRHFENKFAVETLICLNSKAWEAV [LNSKAWEAV],0.366
4,EASNCFAIRHFENKFAVETLICMDGESYQAL [MDGESYQAL],0.454
5,EASNCFAIRHFENKFAVETLICCSKSRYDDH [CSKSRYDDH],6.91
6,EASNCFAIRHFENKFAVETLICGMKSETHVR [GMKSETHVR],inactive
7,EASNCFAIRHFENKFAVETLICNIADASSRF [NIADASSRF],4.38
8,EASNCFAIRHFENKFAVETLICHMADHLAPL [HMADHLAPL],inactive
9,EASNCFAIRHFENKFAVETLICESFVAKRSP [ESFVAKRSP],2.87
10,EASNCFAIRHFENKFAVETLICGISGKVFRY [GISGKVFRY],2.74
11,EASNCFAIRHFENKFAVETLICAPYINPLGV [APYINPLGV],inactive
12,EASNCFAIRHFENKFAVETLICDWCNDRNDS [DWCNDRNDS],6.71
13,EASNCFAIRHFENKFAVETLICGVRQPSAPF [GVRQPSAPF],inactive
14,EASNCFAIRHFENKFAVETLICRRLMVCFGV [RRLMVCFGV],inactive
15,EASNCFAIRHFENKFAVETLICVRGTGISIY [VRGTGISIY],0.00905
16,EASNCFAIRHFENKFAVETLICVRLAVVHGM [VRLAVVHGM],inactive
17,EASNCFAIRHFENKFAVETLICRSQVLCAKG [RSQVLCAKG],inactive
18,EASNCFAIRHFENKFAVETLICVLMRSESTP [VLMRSESTP],inactive
